44 sequences from the supplement of paper PMC11417369 can be followed below.

± gives the standard deviation of the averaged measurements. The list shows a part of the results.

The test system of the assay is PfAP2-G AP2 domain (GST-tagged). The assay can be described thus: gcPBM binding intensity (ln(normalized median fluorescence intensity)); higher = stronger DNA binding. In a few lines: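 Binding intensity is the highest Masliner-normalised natural-log median intensity over replicate spots in either probe orientation. To obtain it, GST-tagged P. falciparum DNA-binding domains made in E. coli were incubated for 1 h on an Agilent 4 × 180k array of primer-extended double-stranded 36-bp intergenic genomic probes plus negative controls. Detection used Alexa488 anti-GST antibody with scanning at 488 nm.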
With “AATAAGTAACAAAATACACACATATAGGTAATTATA [CACACA_site6949]”, the “gcPBM binding intensity (ln)” value is 9.99 ± 0.099.

“AAAAGGAAAAATATCACACATATATATATATATATA [CACACA_site5586]”: the “gcPBM binding intensity (ln)” value was 10.1 ± 0.73.

As for “ATATATATTTATAGGTGTACAAAATACTATTTTAGG [XGTACX_site8499]”, the “gcPBM binding intensity (ln)” value stood at 11.3 ± 0.82.

In the case of “TTAATTCTACTTATTACACACATATTAAGCAAAAAT [CACACA_site4921]”, the “gcPBM binding intensity (ln)” value was 10.1 ± 0.26.

With “TTACCCATTCCCTTTACATGCAATTTGTATTAATAA [TGCATGCA_site412]”, the “gcPBM binding intensity (ln)” value worked out at 10.1 ± 0.11.

As to “GTACGTTAGATATATACACACATACATAATAAAGAA [CACACA_site7327]”, the “gcPBM binding intensity (ln)” value came to 10.8 ± 0.28.

In the case of “AAAATATATACAATATGTACATATATATATATATAT [XGTACX_site1898]”, the “gcPBM binding intensity (ln)” value was determined as 11.2 ± 0.73.

On to “ATATGTTCCGAAGGTTGTACACACATAGAAATATAC [XGTACX_site8227]”, for which the “gcPBM binding intensity (ln)” value was determined as 11.6 ± 1.

Take “ATATATATTAACAATACACACGTGTATACCTTATTG [CACACA_site5258]”: the “gcPBM binding intensity (ln)” value was determined as 10.5 ± 0.22.

In the case of “TTCATCTTAAAATTGGGTACATAACACAAAGTATAA [XGTACX_site1894]”, the “gcPBM binding intensity (ln)” value came to 11.3 ± 0.93.

With “ATTTCTCTATCGTAATGTACATAAAAAAGAAAAACA [XGTACX_site6374]”, the “gcPBM binding intensity (ln)” value worked out at 11.2 ± 0.77.

Take “TTATTAAATTCATAAGTGCATTTATGATTAATTTTT [GTGCAC_site9749]”: the “gcPBM binding intensity (ln)” value turned out to be 9.73 ± 0.16.

“ATGATAAACATGGATACACACATATAGATTGCATAT [CACACA_site6843]”: the “gcPBM binding intensity (ln)” value was found to be 10.2 ± 0.11.

With “TTTTTTTTTTTTTTTTGTCCGTACTGCTTTGTGTTT [XGTACX_site3687]”, the “gcPBM binding intensity (ln)” value is 11.1 ± 1.1.

As to “TTACATGTAAAAGGTACACACATTATGTATACAAAT [CACACA_site1117]”, the “gcPBM binding intensity (ln)” value is 11.4 ± 0.88.

On to “AAAATTTTTAGTTATACACACAACATAGAAAATATT [CACACA_site328]”, for which the “gcPBM binding intensity (ln)” value is 10.13 ± 0.092.

Regarding “CTATAAATATTTTATTGTACACACTTTTTATGAATG [XGTACX_site6711]”, the “gcPBM binding intensity (ln)” value is 11.6 ± 0.73.

On to “ATATATATATAGTGCACACTTAAGAATATAAAGAGG [CACACA_site1151]”, for which the “gcPBM binding intensity (ln)” value is 10.5 ± 0.28.

On to “AATACATACAGACACACACACACATATATATATATA [CACACA_site3558]”, for which the “gcPBM binding intensity (ln)” value was 10.3 ± 0.43.

With “AAACTTAATATCGGTACACACACAAGATAAGAATTA [CACACA_site8200]”, the “gcPBM binding intensity (ln)” value was 11.1 ± 0.85.

In the case of “CACATACACCCATACACACACATATATATTAAGATA [CACACA_site4459]”, the “gcPBM binding intensity (ln)” value came out at 10.3 ± 0.36.

For the sequence “GAACAGTTTGTTTAGTGTACTTTTTTTTTTTTTTTT [XGTACX_site8881]”, the “gcPBM binding intensity (ln)” value was found to be 11.6 ± 0.89.

On to “AATAATTTTATCGGTACACACTGTATGCATAATATT [CACACA_site4364]”, for which the “gcPBM binding intensity (ln)” value came to 11.1 ± 0.78.

On to “GTAAGAAACAGACACACACACATATATATATATATA [CACACA_site794]”, for which the “gcPBM binding intensity (ln)” value came to 10.2 ± 0.51.

Take “CTTAATTTAATGAAATGTACATATAAAAATATTATA [XGTACX_site3303]”: the “gcPBM binding intensity (ln)” value was found to be 11.1 ± 0.67.

For the sequence “TTTGATCGATGGATTTAACACACAAAAAAAAAAAAA [CACACA_site9279]”, the “gcPBM binding intensity (ln)” value is 9.88 ± 0.5.

Take “ATGTACAAAATAAGCACACACAAAAAAAAAAAAAAT [CACACA_site2998]”: the “gcPBM binding intensity (ln)” value worked out at 10.6 ± 0.61.

On to “TCAAAAATAAAGATCACACATATATATATATATATA [CACACA_site4381]”, for which the “gcPBM binding intensity (ln)” value was found to be 10.3 ± 0.99.

As to “TCTAATTACAAAAACATACACACAAAAAAAAAAAAA [CACACA_site3783]”, the “gcPBM binding intensity (ln)” value is 9.76 ± 0.42.

Take “CCTATAAATGCATTCACACATATATATTTATATTAT [CACACA_site6086]”: the “gcPBM binding intensity (ln)” value came to 10.1 ± 0.13.

For “GGTATAATAATATATAGTACACACAAAAATGGAAGT [XGTACX_site7058]”, the “gcPBM binding intensity (ln)” value was 11.3 ± 0.76.

Turning to “ATATACACACAAAAACGTACACATATATATATGTAT [XGTACX_site2673]”, the “gcPBM binding intensity (ln)” value was found to be 11.7 ± 0.86.

“AAAAAAAAAAAAAACACACACATACACCCAAAAATG [CACACA_site4223]”: the “gcPBM binding intensity (ln)” value turned out to be 10.4 ± 0.18.

For “AAAAAAAAAAAAAGCACACATATAAATATGAATAAA [CACACA_site1393]”, the “gcPBM binding intensity (ln)” value came to 9.83 ± 0.17.

For “GATGATAATAAATTTATATATAATATTATCTTATGT [GTGCAC_negctrl_site672]”, the “gcPBM binding intensity (ln)” value was found to be 9.51 ± 0.26.

As for “CATATTAAAAATTATTGTACATATTAATGAATATAA [XGTACX_site2734]”, the “gcPBM binding intensity (ln)” value was 11 ± 0.76.

In the case of “ATTTTTGCAGTAATTAAATAGACAAAATGAAAAAAA [CACACA_negctrl_site1537]”, the “gcPBM binding intensity (ln)” value came out at 10.12 ± 0.014.

As for “AACCAAACAAATAAACGTACAAACATTACATATATT [XGTACX_site2265]”, the “gcPBM binding intensity (ln)” value amounted to 11.2 ± 0.57.

As for “AAAAAAAAAAAAAAAAAAAAAAAAATATATAATTTA [CACACA_negctrl_site583]”, the “gcPBM binding intensity (ln)” value was determined as 11 ± 0.49.

Turning to “CAATCATGGGTTTACACACACATGCATGTGAAAATT [CACACA_site1349]”, the “gcPBM binding intensity (ln)” value was 10.06 ± 0.092.

Regarding “ACAATAAAGAAGTGTACACATATATCAATAAAAAAA [CACACA_site5228]”, the “gcPBM binding intensity (ln)” value was found to be 11.6 ± 0.95.

With “AAAATAATATTTAATACACACATAATTTTAATATAA [CACACA_site4588]”, the “gcPBM binding intensity (ln)” value was 9.98 ± 0.28.

With “TACTTATATTATTTTATTATTAAATTTAAAACGAAA [CACACA_negctrl_site736]”, the “gcPBM binding intensity (ln)” value stood at 9.71 ± 0.25.

As to “ATATGTTATATAAATATATATATATATATATATATA [TGCATGCA_negctrl_site594]”, the “gcPBM binding intensity (ln)” value is 9.95 ± 0.67.
